Test results: US20110028422A1 (priority 2007, published 2011)

Columns and labels:
[1] = system: lymphocytes from B-CLL patients; conditions: for patients tested whose CLL lymphocytes were sensitized (synergistic plus additive effect) to CLB: MTT
[2] = system: lymphocytes from B-CLL patients; assay: cells; conditions: Homo sapiens, 72 h, single agent, MTT 72 h
[3] = B-CLL lymphocytes of patient 9 (clinically untreated)
[4] = B-CLL lymphocytes of patient 14 (prior chlorambucil therapy)
[5] = B-CLL lymphocytes of patient 15 (prior chlorambucil therapy)
[6] = B-CLL lymphocytes of patient 16 (prior chlorambucil therapy)
[7] = B-CLL lymphocytes of patient 18 (prior chlorambucil therapy)

Compound	sensitization of B-CLL lymphocytes to CLB compared with imatinib ([1]; 5 or 10 μM, FIGURE, p<0.001)	patients tested whose CLL lymphocytes were sensitized (synergistic plus additive effect) to CLB ([1]; c-abl inhibitor at 1 μM)	patients tested whose CLL lymphocytes were sensitized (synergistic plus additive effect) to CLB ([1]; c-abl inhibitor at 5 μM)	patients tested whose CLL lymphocytes were sensitized (synergistic plus additive effect) to CLB ([1]; c-abl inhibitor at 10 μM)	IC50 [2, 3]	IC50 [2, 4]	IC50 [2, 5]	IC50 [2, 6]	IC50 [2, 7]
Cc1cn(-c2cc(NC(=O)c3ccc(C)c(Nc4nccc(-c5cccnc5)n4)c3)cc(C(F)(F)F)c2)cn1 [Nilotinib, 4-methyl-3-[[4-(3-pyridinyl)-2-pyrimidinyl]amino]-N-[5-(4-methyl-1H-imidazol-1-yl)-3-(trifluoromethyl)phenyl]benzamide]	statistically more potent	84.6%	100%	90.5%	> 100 µM	33.2 µM	19.9 µM	9.61 µM	28.7 µM
O=C(O)CCCc1ccc(N(CCCl)CCCl)cc1 [CLB, chlorambucil]					11.7 µM	8.1 µM	49.7 µM	4.54 µM	66 µM

Where two headings read alike, the source gives them in different places.
